Values joined by “and” are separate entries in the source; they are usually repeats but may differ in a detail not shown here. Identical values can stand only once. About 4,000 (4.3%) of roughly 94,000 compounds were called active. Inconclusive results, whose numbers are uncertain, are shown with a selection of clear calls. Calls come from the whole dose curve; as a rule, active = well fitted inhibition curve with a large enough effect; inconclusive = small, poorly fitted or top-dose-only effect; inactive = no such curve, though single readings can be large or run the other way. Potencies beside an inconclusive call are fits to weak or partial responses and may not hold up.
Assay: Cytotoxic Profiling in NIH 3T3 Cell Line of Diverse Libraries Using Quantitative High-Throughput Screening; note: nearly all actives have a fitted effect of over 55% in size
Settings: NIH 3T3 viability, CellTiter-Glo ATP luminescence, 48-72 h; series mostly up to 96.7 µM
Outline: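 Luminescent ATP readout (CellTiter-Glo, 10 min RT) after 48 or 72 hr compound exposure of NIH 3T3 cells seeded at 400 cells/well in 1536-well format; quantitative HTS.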
Potency is the fitted concentration of half-maximal effect; tags give direction and shape of the fitted curve.

Compound | Potency
COCCNC(=O)c1ccc2c(c1)NC(C)(COc1ccc(OC)cc1)CO2 (stereo not given) | inconclusive: 79.4 µM [inhibitor, partial curve, poor fit]
COc1ccc2[nH]cc(CCNC(=O)CN3CCCc4nc(C5CC5)ncc4C3=O)c2c1 | inactive
COc1cc(Cl)ccc1OCc1nc2c(n1Cc1ccccc1)C(=O)N(Cc1ccccc1C#N)CCN2 | inconclusive: 25.1 µM [inhibitor, full curve, poor fit]
CCc1cc(=O)n(CC(=O)Nc2cccc(SC)c2)c(N2CCOCC2)n1 | inactive
Cc1cc(C)c2c(CC(=O)N3CCc4c(nc[nH]c4=O)C3)coc2c1C | inconclusive: 89.1 µM [inhibitor, single point]
CC1Oc2ccc(NS(=O)(=O)c3ccc(F)cc3)cc2CN(Cc2ccc(F)cc2)C1=O (stereo not given) | inconclusive: 39.8 µM [inhibitor, partial curve]
O=C(NCCc1ccc(Cl)cc1)C1CCCN1C(=O)c1cccc(-c2ccccn2)c1 (stereo not given) | inconclusive: 56.2 µM [inhibitor, partial curve, poor fit]
Cc1noc([C@@H](C)NC(=O)Nc2ccc(Cl)cc2)c1C(=O)O | inconclusive: 126 µM [inhibitor, single point]
Cc1cccc(C(=O)N2CCC(Cc3ncc(C)n3CC3CC3)CC2)c1 | inconclusive: 39.8 µM [inhibitor, partial curve, poor fit]
COc1ccccc1-c1nc(C(=O)NCc2cccs2)n2ccncc12 | inconclusive: 56.2 µM [inhibitor, partial curve, poor fit]
CC(C)c1ccc(C(=O)N2CC(C(=O)NC3CCCCC3)C3(CCOCC3)C2)cc1 (stereo not given) | inactive
COc1ccc(CC(=O)N2CCC(Cc3nc(-c4ccccc4)no3)CC2)cc1OC | inconclusive: 10 µM [inhibitor, full curve, poor fit]
CCOC(=O)c1ccc(CNC(=O)N2CCC3(CC2)CN(c2ccccc2)C3=O)cc1 | inconclusive: 31.6 µM [inhibitor, partial curve]
N#Cc1ccc(CNC(=O)[C@@H]2Cc3nc[nH]c3CN2Cc2ccc(C(F)(F)F)cc2)cc1 | inactive
C=CCNC(=O)[C@@H]1Cc2cn(CC#CC)c3cccc(c23)[C@H](CC(C)C)N1 | inconclusive: 79.4 µM [inhibitor, partial curve, poor fit]
O=[S+]([O-])(c1ccccc1)N1CCCN(c2ccc3nnc(-c4ccccc4)n3n2)CC1 | inconclusive: 44.7 µM [inhibitor, partial curve, poor fit]
O=C(c1ccc(Cn2ccn3nc4c(c3c2=O)CCCC4)cc1)N1CCN(c2ccccc2F)CC1 | inactive
O=C(Nc1ccc(Oc2cccnc2)cc1)C1CCN(CCCc2ccccc2)CC1 | inconclusive: 56.2 µM [inhibitor, partial curve, poor fit]
CCCn1ncc(C(=O)NCC2(O)CCCNC2)c1C (stereo not given) | inactive
COc1ccc(-n2nc(C3CCN(Cc4ccc(F)cc4)CC3)[nH]c2=O)cc1 | inconclusive: 22.4 µM [inhibitor, full curve] and inconclusive: 44.7 µM [inhibitor, partial curve]
Cc1nc(C2CC23CCN(C(=O)Nc2ccc4c(c2)OCCO4)CC3)no1 (stereo not given) | inactive
CCOC(=O)c1cn(C2CN(C(=O)Cc3ccccc3F)C2)nn1 | inactive

Compound | Potency
O=C(c1cn2cc(-c3ccccc3)sc2n1)N1CCOCC1 | inconclusive: 79.4 µM [inhibitor, partial curve, poor fit]
O=C(Nc1cccc(-c2ccc(N3CCOCC3)nn2)c1)Nc1ccccc1Cl | inconclusive: 28.2 µM [inhibitor, full curve]
Cc1ccc2c(c1)nc1n2[C@@H](CNCc2nc3ccccc3n2C)COC1 | inconclusive: 44.7 µM [inhibitor, full curve, poor fit]
O=C(c1ccncc1)N1CCC(C2CCN(Cc3cccc(F)c3F)CC2)C1 (stereo not given) | inconclusive: 35.5 µM [inhibitor, partial curve, poor fit]
O=C(NCCN1CCOCC1)c1ccc2nc(-c3ccnc(Cl)c3)oc2c1 | inactive
C[C@H]1[C@@H]2[C@@H](O)C([C@H](C)C(=O)NCc3cccs3)CC[C@@]2(C)CC[C@@H]1NC(=O)c1cnccn1 (stereo not given in full) | inactive
CC1Oc2ccc(NC(=O)c3ccc(F)cc3)cc2CN(Cc2ccccc2F)C1=O (stereo not given) | inconclusive: 50.1 µM [inhibitor, partial curve, poor fit]
COc1ccccc1-c1nc(C(=O)N2CCC(C#N)CC2)n2ccccc12 | inactive
O=C(CCc1nnc(CCc2c[nH]c3ccccc23)o1)N1CCCC1c1nccs1 (stereo not given) | inconclusive: 56.2 µM [inhibitor, partial curve, poor fit]
CCn1ncc(NC(=O)Cn2ncc3cc(-c4ccc(C)cc4F)ccc32)n1 | inactive
CCOc1cccc2c1OC[C@@H]1CN(CC)C(=O)CCN(C(=O)COc3ccccc3)[C@H]21 | inconclusive: 44.7 µM [inhibitor, partial curve, poor fit]
CN(C)[S+](=O)([O-])c1ccc2c(c1)OCCN(Cc1ccccc1F)C2 | inconclusive: 63.1 µM [inhibitor, partial curve, poor fit]
CN1c2cc(C(=O)Nc3ccc(F)cc3)ccc2C(=O)N2CCCCC21 (stereo not given) | inactive
CCCC1=Nc2cc(C(=O)NCc3ccccc3Cl)ccc2Sc2ccc(Cl)cc21 | inconclusive: 25.1 µM [inhibitor, full curve, poor fit]
CN(C)c1ccc2ncc(Nc3cccc(C(F)(F)F)c3)n2n1 | inconclusive: 56.2 µM [inhibitor, partial curve, poor fit]
CCc1noc(-c2cccn3c(CNC(=O)c4cc(Cl)ccc4F)nnc23)n1 | inactive
C=CCCOC(=O)N1CC(=O)N(Cc2cccc(F)c2)CC(O)C1 (stereo not given) | inconclusive: 50.1 µM [inhibitor, partial curve, poor fit]
COc1ccc(-c2cc(C[C@@H]3C[C@H](NC(=O)c4ccccc4)C3(C)C)no2)cc1 | inconclusive: 22.4 µM [inhibitor, full curve, poor fit]
O=C(c1ccccc1)N1CCn2c(nn(-c3ccc(C(F)(F)F)cc3)c2=O)C1 | inconclusive: 50.1 µM [inhibitor, partial curve, poor fit]
CC1=C[C@@H](CNC(=O)c2cnccn2)[C@H](C(C)C)C[C@H]1Cc1nc2ccc(F)cc2[nH]1 | active: 112 µM
O=C(c1cn[nH]c1-c1ccc(F)cc1)N1CCCC(Cc2noc(-c3ccccc3)n2)C1 (stereo not given) | inconclusive: 50.1 µM [inhibitor, partial curve, poor fit]
COc1ccc(-c2nc(C(C)C)nc3c2CCN(C(=O)Nc2ccc(Cl)cc2)CC3)cc1 | active: 35.5 µM

Compound | Potency
CCc1nc2c(c(-c3ccc(OC)cc3)n1)CCN(Cc1ccc(OC)cc1)CC2 | inactive
COCCNC(=O)c1nc(-c2ccccc2OC)c2ccccn12 | inconclusive: 70.8 µM [inhibitor, partial curve]
O=C(CC(c1ccc(F)cc1)c1cn(Cc2ccccc2)c2ccc([N+](=O)[O-])cc12)N1CCCC1 (stereo not given) | inconclusive: 20 µM [inhibitor, full curve]
CCc1ccc(CNC(=O)C2Cn3cccc3C(=O)N2)cc1 (stereo not given) | inactive
N#Cc1cccc(NC(=O)N2Cc3[nH]cnc3C[C@H]2c2nc(-c3ccc(Cl)cc3)no2)c1 | active: 79.4 µM
COc1ccc2c(c1)CN(C1CC1)C(=O)CCN2CC(O)CC(F)(F)F (stereo not given) | inconclusive: 50.1 µM [inhibitor, partial curve, poor fit]
O=C(NC1CCC1)[C@@H]1CCCN1c1ccnc2ccnn12 | inconclusive: 89.1 µM [inhibitor, partial curve, poor fit]
O=C(NC1CCCC1)C1CCN(C(=O)c2ccc(-c3cncnc3)cc2)CC1 | inactive
CC1(C(=O)NCC2CC2)CCc2cnc(NCc3ccccc3)nc21 (stereo not given) | inconclusive: 50.1 µM [inhibitor, partial curve, poor fit]
CC(=O)N1CCC(C(=O)N[C@H]2CCN3C(=O)N(c4ccc(Cl)cc4)C(=O)[C@@H]3C2)CC1 | inactive
O=C(Cc1ccc(Cl)cc1)N[C@H]1[C@H](O)[C@H](O)C[C@@H]1c1ccc(C(F)(F)F)cc1 | inconclusive: 100 µM [inhibitor, partial curve, poor fit]
COCC1CN(C2CCC2)CC12CCN(C(=O)c1ccnn1C)CC2 (stereo not given) | inactive
Cc1noc(-c2ccco2)c1C(=O)NCc1cccc2ccccc12 | inconclusive: 10 µM [inhibitor, partial curve, poor fit]
O=C(c1ccc(F)cc1)N1CCn2c(nn(-c3cccc(Cl)c3)c2=O)C1 | inactive
COc1ccccc1-n1c(=O)c(C(=O)N2CCN(C(=O)C3CCCC3)CC2)nc2cccnc21 | inactive
CN(C)C(=O)N1CCC(c2nc(C3CCOC3)n[nH]2)CC1 (stereo not given) | inactive
Cn1nc(C(=O)NCc2nnc3ccc(-c4ccccc4)nn23)c2ccccc21 | inactive
COc1ccccc1CCC(=O)N1CCN(c2cc(-c3cccs3)[nH]n2)CC1 | inconclusive: 31.6 µM [inhibitor, full curve]
COc1cccc(C(=O)N2CCC(C(=O)N3CCC(c4nc5ncccc5[nH]4)CC3)C2)c1 (stereo not given) | inactive
COc1cccc(-c2cccc(CN3CCCC3C(=O)NCc3ccc(F)cc3F)c2)c1 (stereo not given) | inconclusive: 44.7 µM [inhibitor, partial curve, poor fit]
COc1cccc(-c2cccc(C(=O)N3CCCC3C(=O)NCC3CC3)c2)c1 (stereo not given) | inactive

From PubChem BioAssay AID1345082 (National Center for Advancing Translational Sciences (NCATS), 2018)
